# Data reported in the supplement of paper PMC8728848.
# This is one part of the list.
# Columns and labels:
# Assay in all cases: glycan array binding signal (z-score within array); higher = stronger binding
# Conditions in all cases: glycan notation: IUPAC condensed, linker removed
# [1] = target: Gal(b1-4)GlcNAc(b1-3)Gal(b1-4)GlcNAc(b1-3)Gal(b1-4)GlcNAc(b1-3)Gal(b1-4)GlcNAc(b1-2)Man(a1-3)[Gal(b1-4)GlcNAc(b1-3)Gal(b1-4)GlcNAc(b1-3)Gal(b1-4)GlcNAc(b1-3)Gal(b1-4)GlcNAc(b1-2)Man(a1-6)]Man(b1-4)GlcNAc(b1-4)[Fuc(a1-6)]GlcNAc
# Summary of the method: (§1)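 The Consortium for Functional Glycomics database supplied 3228 glycan arrays, of which those lacking an available protein sequence were dropped. The binding signal, a within-array Z-score, was averaged across arrays of the same protein sequence and across linkers. Negative scores can be read as non-binding.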
# [2] = target: Gal(b1-4)GlcNAc(b1-3)Gal(b1-4)GlcNAc(b1-3)Gal(b1-4)GlcNAc(b1-3)Gal(b1-4)GlcNAc(b1-2)[Gal(b1-4)GlcNAc(b1-3)Gal(b1-4)GlcNAc(b1-3)Gal(b1-4)GlcNAc(b1-3)Gal(b1-4)GlcNAc(b1-6)]Man(a1-6)[Gal(b1-4)GlcNAc(b1-3)Gal(b1-4)GlcNAc(b1-3)Gal(b1-4)GlcNAc(b1-3)Gal(b1-4)GlcNAc(b1-2)Man(a1-3)]Man(b1-4)GlcNAc(b1-4)[Fuc(a1-6)]GlcNAc
# Summary of the method: as §1
# [3] = target: Gal(b1-4)GlcNAc(b1-3)Gal(b1-4)GlcNAc(b1-3)Gal(b1-4)GlcNAc(b1-3)Gal(b1-4)GlcNAc(b1-3)Gal(b1-4)GlcNAc(b1-2)Man(a1-3)[Gal(b1-4)GlcNAc(b1-3)Gal(b1-4)GlcNAc(b1-3)Gal(b1-4)GlcNAc(b1-3)Gal(b1-4)GlcNAc(b1-3)Gal(b1-4)GlcNAc(b1-2)Man(a1-6)]Man(b1-4)GlcNAc(b1-4)GlcNAc
# Summary of the method: as §1
# [4] = target: Gal(b1-4)GlcNAc(b1-3)Gal(b1-4)GlcNAc(b1-3)Gal(b1-4)GlcNAc(b1-3)Gal(b1-4)GlcNAc(b1-3)Gal(b1-4)GlcNAc(b1-2)Man(a1-3)[Gal(b1-4)GlcNAc(b1-3)Gal(b1-4)GlcNAc(b1-3)Gal(b1-4)GlcNAc(b1-3)Gal(b1-4)GlcNAc(b1-3)Gal(b1-4)GlcNAc(b1-2)Man(a1-6)]Man(b1-4)GlcNAc(b1-4)[Fuc(a1-6)]GlcNAc
# Summary of the method: as §1
# [5] = target: Gal(b1-4)GlcNAc(b1-3)Gal(b1-4)GlcNAc(b1-3)Gal(b1-4)GlcNAc(b1-3)Gal(b1-4)GlcNAc(b1-3)Gal(b1-4)GlcNAc(b1-2)[Gal(b1-4)GlcNAc(b1-3)Gal(b1-4)GlcNAc(b1-3)Gal(b1-4)GlcNAc(b1-3)Gal(b1-4)GlcNAc(b1-3)Gal(b1-4)GlcNAc(b1-6)]Man(a1-6)[Gal(b1-4)GlcNAc(b1-3)Gal(b1-4)GlcNAc(b1-3)Gal(b1-4)GlcNAc(b1-3)Gal(b1-4)GlcNAc(b1-3)Gal(b1-4)GlcNAc(b1-2)Man(a1-3)]Man(b1-4)GlcNAc(b1-4)[Fuc(a1-6)]GlcNAc
# Summary of the method: as §1
# [6] = target: Gal(b1-4)GlcNAc(b1-3)Gal(b1-4)GlcNAc(b1-3)Gal(b1-4)GlcNAc(b1-3)Gal(b1-4)GlcNAc(b1-3)Gal(b1-4)GlcNAc(b1-3)Gal(b1-4)GlcNAc(b1-2)Man(a1-3)[Gal(b1-4)GlcNAc(b1-3)Gal(b1-4)GlcNAc(b1-3)Gal(b1-4)GlcNAc(b1-3)Gal(b1-4)GlcNAc(b1-3)Gal(b1-4)GlcNAc(b1-3)Gal(b1-4)GlcNAc(b1-2)Man(a1-6)]Man(b1-4)GlcNAc(b1-4)GlcNAc
# Summary of the method: as §1
# [7] = target: Gal(b1-4)GlcNAc(b1-3)Gal(b1-4)GlcNAc(b1-3)GalNAc
# Summary of the method: as §1
# [8] = target: Gal(b1-4)GlcNAc(b1-3)Gal(b1-4)GlcNAc(b1-3)[Gal(b1-4)GlcNAc(b1-3)Gal(b1-4)GlcNAc(b1-6)]GalNAc
# Summary of the method: as §1
# [9] = target: Gal(b1-4)GlcNAc(b1-3)Gal(b1-4)GlcNAc(b1-6)[Gal(b1-3)]GalNAc
# Summary of the method: as §1
# [10] = target: Gal(b1-4)GlcNAc(b1-3)Gal(b1-4)[Fuc(a1-3)]GlcNAc(b1-3)Gal(b1-4)[Fuc(a1-3)]GlcNAc
# Summary of the method: as §1
# [11] = target: Gal(b1-4)GlcNAc(b1-3)GalNAc
# Summary of the method: as §1
# [12] = target: Gal(b1-4)GlcNAc(b1-3)[Fuc(a1-3)GlcNAc(b1-6)]Gal(b1-4)Glc
# Summary of the method: as §1
# [13] = target: Gal(b1-4)GlcNAc(b1-3)[Gal(b1-4)GlcNAc(b1-6)]Gal(b1-4)GlcNAc
# Summary of the method: as §1
# [14] = target: Gal(b1-4)GlcNAc(b1-3)[GlcNAc(b1-6)]Gal(b1-4)GlcNAc
# Summary of the method: as §1
# [15] = target: Gal(b1-4)GlcNAc(b1-6)Gal(b1-4)GlcNAc
# Summary of the method: as §1
# [16] = target: Gal(b1-4)GlcNAc(b1-6)GalNAc
# Summary of the method: as §1
# [17] = target: Gal(b1-4)GlcNAc(b1-6)[Gal(b1-3)]GalNAc
# Summary of the method: as §1
# [18] = target: Gal(b1-4)GlcNAc(b1-6)[Gal(b1-4)GlcNAc(b1-3)]GalNAc
# Summary of the method: as §1
# [19] = target: Gal(b1-4)GlcNAc6P
# Summary of the method: as §1
# [20] = target: Gal(b1-6)Gal
# Summary of the method: as §1
# [21] = target: Gal3S(b1-3)GalNAc
# Summary of the method: as §1
# [22] = target: Gal3S(b1-3)GlcNAc
# Summary of the method: as §1
# [23] = target: Gal3S(b1-3)[Fuc(a1-4)]GlcNAc
# Summary of the method: as §1
# [24] = target: Gal3S(b1-4)Glc
# Summary of the method: as §1
# [25] = target: Gal3S(b1-4)Glc6S
# Summary of the method: as §1
# [26] = target: Gal3S(b1-4)GlcNAc
# Summary of the method: as §1
# [27] = target: Gal3S(b1-4)[Fuc(a1-3)]Glc6S
# Summary of the method: as §1
# [28] = target: Gal3S(b1-4)[Fuc(a1-3)]GlcNAc
# Summary of the method: as §1
# [29] = target: Gal3S(b1-4)[Fuc(a1-3)]GlcNAc6S
# Summary of the method: as §1
# [30] = target: Gal3S4S(b1-4)GlcNAc
# Summary of the method: as §1
# [31] = target: Gal3S6S(b1-4)GlcNAc
# Summary of the method: as §1
# [32] = target: Gal3S6S(b1-4)GlcNAc6S
# Summary of the method: as §1
# [33] = target: Gal4S(b1-4)GlcNAc
# Summary of the method: as §1
# [34] = target: Gal4S6S(b1-4)GlcNAc
# Summary of the method: as §1
# [35] = target: Gal6P(b1-4)GlcNAc
# Summary of the method: as §1
# [36] = target: Gal6S(b1-3)GlcNAc
# Summary of the method: as §1
# [37] = target: Gal6S(b1-3)GlcNAc6S
# Summary of the method: as §1
# [38] = target: Gal6S(b1-4)Glc
# Summary of the method: as §1
binder,measurement,setting,value
GS7807E-bfa-538-23-538 (Bacteroides fragilis) (protein) TDSFESFNTNEAGFDNDSKKQDFNYYGIPLGIIQQGIYFNYDWGSGKNWPFQTMQNLGADLFSGYVHDFNPFNEGKNNSTYYMMDGWNGSTWDNTYGYIMPEVQKSETINEKDNIGFFGITKILKVELMHRLSDLYGPIVYTQFGSKTGSTPDTQQEAYKAFFNDLDTGIAKIREYQKANPDIESFAKFDILMPQGKRTFSEWIRFANSLRLRLAVRIAMADSKLAVAEAQKALTDEEGLLEGNDEVVAVSTSSGYTNPFGEINKAWGEVFMNANMESLLVGYEDPRMEKYFDKATGSDATSLIDYKGTYKGIRQGTGFSHKNYNGHSKSTITQQTDAVLMTPAEVWFLRAEAALRGWSSESVKDCYEKGVKASFAQWGAAGAEAYLESDRKPSDYVDAFKAANNVKAVNTLTPKWDDAAGNEDKLGRIITQKWLAMFPEGGEAWAEQRRTGYPRLFPVLVNQSEGTVDTNLGPRRLNFFVGIKTTNPEQYTQLVNALGGIDNCGTRLWWDTGRNF,glycan array binding signal (z-score),[1],2.83
same,glycan array binding signal (z-score),[2],0.716
same,glycan array binding signal (z-score),[3],1.24
same,glycan array binding signal (z-score),[4],0.752
same,glycan array binding signal (z-score),[5],0.867
same,glycan array binding signal (z-score),[6],0.83
same,glycan array binding signal (z-score),[7],-0.329
same,glycan array binding signal (z-score),[8],0.715
same,glycan array binding signal (z-score),[9],4.07
same,glycan array binding signal (z-score),[10],0.531
same,glycan array binding signal (z-score),[11],-0.315
same,glycan array binding signal (z-score),[12],-0.477
same,glycan array binding signal (z-score),[13],-0.058
same,glycan array binding signal (z-score),[14],-0.572
same,glycan array binding signal (z-score),[15],-0.357
same,glycan array binding signal (z-score),[16],0.465
same,glycan array binding signal (z-score),[17],0.197
same,glycan array binding signal (z-score),[18],0.123
same,glycan array binding signal (z-score),[19],0.764
same,glycan array binding signal (z-score),[20],-0.094
same,glycan array binding signal (z-score),[21],-0.562
same,glycan array binding signal (z-score),[22],-0.514
same,glycan array binding signal (z-score),[23],-0.053
same,glycan array binding signal (z-score),[24],-0.489
same,glycan array binding signal (z-score),[25],-0.065
same,glycan array binding signal (z-score),[26],-0.438
same,glycan array binding signal (z-score),[27],1.61
same,glycan array binding signal (z-score),[28],-0.638
same,glycan array binding signal (z-score),[29],-0.155
same,glycan array binding signal (z-score),[30],-0.693
same,glycan array binding signal (z-score),[31],-0.604
same,glycan array binding signal (z-score),[32],0.097
same,glycan array binding signal (z-score),[33],-0.708
same,glycan array binding signal (z-score),[34],-0.644
same,glycan array binding signal (z-score),[35],0.37
same,glycan array binding signal (z-score),[36],0.347
same,glycan array binding signal (z-score),[37],0.077
same,glycan array binding signal (z-score),[38],0.571
